PubChem BioAssay AID485344 (National Center for Advancing Translational Sciences (NCATS), 2010)
Where “and” joins values, the source holds several entries; their conditions need not be identical. Equal values may be shown once. In all, about 340,000 compounds went through this assay and about 6,900 (2%) were called active. No stated cut-off is given here; in the data, active means inhibition above about 30%; inactive means below that, where a call was filed. The list shows a part of the results, in another mix than the full data. The source gives no active or inactive call for entries shown without one.

The compounds below were run against D(2) dopamine receptor (Homo sapiens) (UniProt P14416) (assay: HTS Assay for Allosteric Antagonists of the Human D2 Dopamine Receptor: Primary Screen for Antagonists). Conditions: HEK293 TREx D2 cells, calcium flux, dopamine EC80; at 10 µM; stronger effect = higher value.
Summary of the method: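 Overnight-induced (tetracycline, 30 C) HEK293 T-REx cells carrying force-coupled D2 receive a no-wash calcium dye, then compound, then EC80 dopamine at 180 s; signals are read kinetically throughout.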
Further: 0% is about no effect.

Chain of UniProt P14416 (P14416 whole entry, looked up): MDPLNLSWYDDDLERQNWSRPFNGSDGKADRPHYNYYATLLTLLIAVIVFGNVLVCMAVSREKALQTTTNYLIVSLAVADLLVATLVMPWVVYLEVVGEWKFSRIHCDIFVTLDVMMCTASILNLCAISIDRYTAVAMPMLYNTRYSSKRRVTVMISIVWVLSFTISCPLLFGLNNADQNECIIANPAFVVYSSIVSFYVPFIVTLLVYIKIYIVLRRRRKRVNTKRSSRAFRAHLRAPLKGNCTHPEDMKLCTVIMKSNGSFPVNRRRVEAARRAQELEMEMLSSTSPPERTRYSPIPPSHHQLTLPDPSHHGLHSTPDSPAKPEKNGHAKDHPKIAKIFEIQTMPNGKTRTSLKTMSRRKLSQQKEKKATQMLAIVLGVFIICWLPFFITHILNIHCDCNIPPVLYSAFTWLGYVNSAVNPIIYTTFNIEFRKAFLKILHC

Structure (SMILES)	inhibition
Cc1ccc(Cn2c(C(=O)O)c(CNC3CCCCC3)c3ccc(C)cc32)cc1	10.8%
CCN(C(=O)c1cc2c(=O)oc3ccccc3c2s1)c1ccc(C)c(C)c1	3.85%
Cc1cc(C)cc(NC(=O)c2cc(C)nc3c2c(C)nn3-c2ccccc2)c1	-1.6%
CCOc1ccc(C2CC(=O)NC(NC(=O)c3ccc(C)cc3)=N2)cc1 (configuration not stated)	-1.76%
COc1cccc(-c2nc(SCC(=O)NCC3CCCO3)c(-c3ccc(C)cc3)[nH]2)c1 (configuration not stated)	23.9%
COc1ccc(NC(=O)Cn2c(=O)n(CCC(C)C)c(=O)c3cccnc32)cc1Cl	-15.6%
Cc1ccc(OCC(=O)N(Cc2ccc(Cl)cc2)Cc2ccco2)cc1C	-0.72%
CCOc1ccc(NC(=O)c2cc3c(C)nn(-c4ccccc4)c3s2)cc1	-7.47%
COc1ccccc1N1CCN(CCCCNC(=O)c2ccc3ccccc3c2)CC1	active: 75.4%
COC(=O)c1ccc(OCC2c3cc(OC)c(OC)cc3CCN2C(=O)c2ccccc2C)cc1 (configuration not stated)	-13.6%
Cc1nc(N2CCCC2)c2c(C(=O)N3CCN(c4ccc(F)cc4)CC3)c(C)oc2n1	-0.918%
Cc1ccc(-c2nnc(Nc3ccc(Br)cc3)c3ccccc23)cc1S(=O)(=O)NCC1CCCO1 (configuration not stated)	6.32%
Nc1nc(N)nc(-c2cccc(Cl)c2)n1	active: 32.1%
Cc1ccccc1CN1CCN(CC(=O)NCCCN2CCN(c3ccc(F)cc3)CC2)C1=O	active: 64.1%
Cc1cccc(N2CCN(C(=O)Cn3ncc4c3-c3cc(C)ccc3OC4)CC2C)c1 (configuration not stated)	3.57%
CCc1cccc(CC)c1NC(=O)c1c(C)oc2ccc(O)c(CN3CCN(C)CC3)c12	1.36%
COc1cccc(C2CC(=O)Nc3cc(OC)c(OC)c(OC)c32)c1OC(C)C (configuration not stated)	-0.442%
COc1cc(CNC(=O)c2sc3ncccc3c2-n2cccc2)cc(OC)c1OC	25.9%
COc1ccc(NC(=O)CN2C(=O)C(C)(C)c3ccccc32)cc1Cl	4.97%
CSc1ccc(CCNC(=O)C2=C(C)C(=O)OC23CCCCC3)cc1	14.7%
Cc1cccc(Cn2c(=O)n(CC3CCC(C(=O)NC(C)C)CC3)c(=O)c3sccc32)c1 (configuration not stated)	8.82%
CCN(CC)CCCNC(=S)N1CCN(c2nc(-c3ccccc3)cs2)CC1	active: 32.6%
Cc1nn(-c2ccccc2)c(OC(=O)c2cccc(Br)c2)c1S(=O)(=O)c1ccccc1	-3.78%
COc1ccccc1CN1CCC(CNS(=O)(=O)c2cc(-c3onc(C)c3C)ccc2OC)CC1	-8.05% and active: 33.4%
N#Cc1nc(-c2ccc(COc3ccccc3)o2)oc1NCc1cccnc1	-14.4%

Structure (SMILES)	inhibition
CSc1nc(Nc2ccc(C)cc2C)cc(-c2ccccc2)n1	6.37%
CN(Cc1ccccc1)C(=O)C1CCN(S(=O)(=O)c2ccc3c(c2)oc(=O)n3C)CC1	-12.8%
CCOC(=O)CNC(=O)CSc1cn(CC(=O)N2CCCCCC2)c2ccccc12	-5.44%
O=C1COc2ccc(-c3cc(-c4ccc(Cl)cc4)c4c(n3)-c3ccccc3OC4)cc2N1	15.2%
Cc1cccc(C(=O)Nc2nnc(S(=O)(=O)N(C)Cc3ccc(Cl)cc3)s2)c1	-6.29%
Cc1cc2nc(/C(C#N)=C/c3ccncc3)[nH]c2cc1C	active: 36.2%
CCOc1ccc(C(=O)NCc2nnnn2-c2ccc(C)c(C)c2)cc1OCC	-1.09%
Cc1ccc(-n2c(=O)c3ccc(C(=O)NCc4ccccc4Cl)cc3n(CC(=O)Nc3cccc(Cl)c3)c2=O)cc1	3.57%
Cc1nc2cc(C(=O)NCCC3=CCCCC3)ccc2n1-c1ccc(Br)cc1	12.9%
Cc1cc(C)c(NC(=O)CCN2C(=O)c3ccccc3Sc3ncccc32)c(C)c1	-6.23%
CCc1nn(CC(=O)NCC(C)c2ccccc2)c(=O)c2cc3occc3n12 (configuration not stated)	17.6%
Cc1ccc(C(=O)c2oc3ccccc3c2NC(=O)c2cc(-c3ccc(Cl)cc3)on2)cc1	-14.4%
COc1ccc(C2=NC3(CCCCCC3)N(CC(=O)Nc3ccc(C)c(C)c3)C2=O)cc1	-1.93%
COc1ccc(CNC(=O)CN(c2cc(C(F)(F)F)ccc2Cl)S(C)(=O)=O)cc1	16.9%
CCn1c(C)c(C)c2cc(C(=O)NCc3ccc(N(C)C)cc3)ccc21	-13.3%
CC(=O)Nc1ccc(S(=O)(=O)NCC2CCC(C(=O)NCc3ccccc3Cl)CC2)cc1 (configuration not stated)	-12%
C=CCn1c(SCC(=O)Nc2sccc2C#N)nc2sc(C)c(C)c2c1=O	active: 32.2%
CSc1ccc(CNC(=O)Cc2csc3ccccc23)cc1	7.31%
CC(=O)NCCNc1nc2c(-c3cccc(C)c3)nnn2c2ccc(Cl)cc12	-6.6%
COc1ccc(-n2nnnc2C2CCN(S(=O)(=O)c3ccc(F)cc3Cl)CC2)cc1	13.6%
COc1cccc(Nc2sc(C(=O)c3ccc4c(c3)OCO4)c(N)c2S(=O)(=O)c2ccccc2)c1	5.85%
CC(=O)c1cccc(NC(=O)c2sc(-n3nc(C)c(CCC(C)C)c3C)nc2C)c1	0.8%
Cc1nc(-c2ccc(S(=O)(=O)N3CCN(c4cccc(Cl)c4)CC3)cc2)co1	23.2%
COc1cc(NC(=O)Cn2c(=O)n(CC(=O)NCCc3ccc(OC)c(OC)c3)c(=O)c3sccc32)cc(OC)c1	-4.35%
COc1cc(C)nc(SCC(N)=O)n1	active: 32.5%

Structure (SMILES)	inhibition
Cc1ccc(NC(=O)/C(C#N)=C/c2ccccc2Cl)cc1C	7.77%
COc1ccccc1OCCCCn1c(C2CC(=O)N(c3ccccc3Cl)C2)nc2ccccc21 (configuration not stated)	0.698%
O=C(NCCCN1CCCC1=O)c1cccc(S(=O)(=O)N2CCCCC2)c1	active: 38.3%
CCN(CC)CCNC(=O)CN1C(=O)c2cccnc2Oc2ccc(C)cc21	-16.7%
COc1ccc(CCNC(=O)Cn2c(=O)n(-c3ccc(OC)c(OC)c3)c(=O)c3ccccc32)cc1OC	-2.91%
CN(Cc1ccccc1)Cc1c(O)ccc2c(=O)c(-c3ccccc3)c(C(F)(F)F)oc12	14.6%
COc1ccccc1C1CCN(Cc2ccccc2)CC1	active: 83.2%
Cc1ccc(NC(=O)CN2c3ccccc3S(=O)(=O)c3ccccc32)cc1F	7.37%
CCN(C(=O)c1sc2cc(OC)ccc2c1Cl)c1ccccc1	3.37%
O=C(NC1CCCC1)c1cnn(-c2ccc(F)cc2F)c1C1CCNCC1	8.88%
Cc1cccc(Cn2c(=O)n(CCCCC(=O)NCc3ccc4c(c3)OCO4)c(=O)c3ccccc32)c1	-5.98%
Cc1ccc(S(=O)(=O)N2CCN(Cc3ccccc3)CC2)c(C)c1NS(C)(=O)=O	-9.39%
COC(=O)c1ccn(CSc2cc(Cl)ccc2Cl)n1	active: 41.8%
CCSc1nnc2c(n1)OC(c1ccc(OC)cc1OC)N(C(C)=O)c1ccccc1-2 (configuration not stated)	-6.65%
Cc1ccc(C2=NC(c3ccc(F)cc3)=Nc3ccc(C)cc3N2)cc1	1.63%
Cc1ccc(S(=O)(=O)c2cnc(SCC(=O)Nc3ccccc3C(F)(F)F)[nH]c2=O)cc1C	13.6%
CCC1CCCCN1C(=O)N[C@@H](CCSC)C(=O)OC (some centres not stated)	active: 36.7%
Cc1ccc(Cl)cc1NC(=O)c1cc2c(=O)n3cccc(C)c3nc2n1C	9.03%
Cc1cc(C)cc(NC(=O)C2CCCN(c3cnccn3)C2)c1 (configuration not stated)	10.4%
O=C(NCc1ccc(F)cc1)c1cnc(N2CCOCC2)c2ccccc12	19%
C/C(=N\NC(=S)NC1CCCCC1)c1ccccc1	active: 40.7%
CCOc1cc(CNC(=O)c2ccc3c(c2)nc2n3CCCCC2)ccc1OC	-25.9%
COc1ccc(-n2c(=O)c3c4c(sc3n(CC(=O)N3CCCCC3C)c2=O)CCC4)c(OC)c1 (configuration not stated)	3.48%
Cc1cc(C)cc(OCC(O)CN2CCN(C(=O)c3ccco3)CC2)c1 (configuration not stated)	active: 34.6%
COc1ccccc1N1CCN(S(=O)(=O)c2c(C)sc3ncn(CC(=O)Nc4ccc(C(C)C)cc4)c(=O)c23)CC1	1.94%

Structure (SMILES)	inhibition
Cc1ccc(N2CCN(C(=O)c3ccc(Nc4nc5ccccc5n5nnnc45)cc3)CC2)c(C)c1	-3.05%
Cc1ccc(C(=O)NNC2=Nc3cccc4cccc2c34)cc1	active: 70.8%
CC1CCN(CCCNC(=O)CN2C(=O)CSc3ccc(S(=O)(=O)N4CCC(C)CC4)cc32)CC1	18%
CN(C)c1ccc(NC(=O)CSc2nc(-c3ccco3)cc(C(F)(F)F)n2)cc1	-5.64%
Cc1ccc(OCC(=O)c2c(N)n(C)c(=O)n(C)c2=O)c([N+](=O)[O-])n1	active: 32.9%
Cc1ccccc1C(=O)Oc1cc(-c2ccc3c(c2)OCO3)cc(=O)c2c(C)oc(C)c12	3.2%
O=C(COc1ccccc1Cl)N(Cc1ccco1)Cc1ccco1	-4.08%
CN(C)CCOCCOc1ccc(Cl)cc1C(C)(C)C	active: 64%
COC(=O)c1ccccc1NC(=O)COCc1cc(-c2cccs2)on1	-20.1%
Cc1ccc(CNc2nc3c(c(=O)n(C)c(=O)n3C)n2Cc2ccc(Cl)cc2)cc1	26.5%
Cc1ccc(CN(C(=O)c2ccc(F)cc2)c2ccccn2)o1	3.42%
Cc1cc(C)cc(-c2nnc(SCC(=O)Nc3cc(C)on3)o2)c1	active: 36.3%
COc1ccc(C)cc1S(=O)(=O)Nc1ccc(F)c(Cl)c1	active: 32%
CCOC(=O)c1[nH]c2ccccc2c1NC(=O)c1cc(OC)cc(OC)c1	-3.81%
COc1cccc(-c2ccnc3c(-c4ccccc4)c(C)nn23)c1	-3.96%
CCOc1ccc(NC(=O)N2CCC(CN3CCC(C)CC3)CC2)cc1	4.74%
COc1ccc(-c2[nH]ncc2/C=N/NC(=O)c2ccc(Br)cc2)c(OC)c1	active: 48.3%
COc1ccc(-c2cc(C(=O)NCCc3ccc(Cl)cc3)[nH]n2)cc1	0.239%
Cc1cc(OCCN2CCOCC2)ccc1Cl	active: 46.5%
Cc1cccc(N2CCN(C(=O)COCc3cc(-c4ccc5c(c4)OCO5)on3)CC2)c1C	13.8%
COc1ccc(C2=C(C)C(N3CCC(C(=O)NCc4ccco4)CC3)=NS2(=O)=O)cc1	-18.2%
Cc1ccc(CNS(=O)(=O)c2cc(C(=O)Nc3ccc(C(C)C)cc3)ccc2F)cc1	6.94%
